# Test results as given in the supplement of paper PMC8728848.
# The other results are listed elsewhere or left out.
# B1: Mannose Binding Protein (Lactobacillus plantarum) (protein)
# chain: AERSEAALTHVDKDNFLKYFSLNGSATYDAKTGIVTITPNQNNQVGNFSLTSKIDMNKSFTLTGQVNLGSNPNGADGIGFAFHSGNTTDVGNAGGNLGIGGLQDAIGFKLDTWFNSYQAPSSDKNGSEISSTNSNGFGWNGDSANAPYGTFVKTSNQEISTANGSKVQRWWAQDTGESQALSKADIDGNFHDFVVNYDGATRTLTVSYTQASGKVLTWKTTVASSYQAMAMVVSASTGAAKNLQQFKLTSFDFQEAATVNVKYVDTTGHQLAQG
# Tests used:
# Test in all cases: glycan array binding signal (z-score within array); higher = stronger binding
# Details in all cases: glycan notation: IUPAC condensed, linker removed
# Fuc(a1-2)Gal = target: Fuc(a1-2)Gal
# Procedure, shortened: (§1)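 The binding signal is a Z-score computed within each array. Data were drawn from 3228 arrays in the Consortium for Functional Glycomics database, restricted to those with a known protein sequence. Scores were averaged over arrays of the same protein sequence at different concentrations or buffers, and over linkers, and negative values can be taken as non-binding.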
# Fuc(a1-2)Gal(b1-3)GalNAc = target: Fuc(a1-2)Gal(b1-3)GalNAc
# Procedure, shortened: as §1
# [1] = target: Fuc(a1-2)Gal(b1-3)GalNAc(b1-3)Gal
# Procedure, shortened: as §1
# [2] = target: Fuc(a1-2)Gal(b1-3)GalNAc(b1-3)Gal(a1-4)Gal(b1-4)Glc
# Procedure, shortened: as §1
# [3] = target: Fuc(a1-2)Gal(b1-3)GalNAc(b1-4)[Neu5Ac(a2-3)]Gal(b1-4)Glc
# Procedure, shortened: as §1
# Fuc(a1-2)Gal(b1-3)GlcNAc = target: Fuc(a1-2)Gal(b1-3)GlcNAc
# Procedure, shortened: as §1
# [4] = target: Fuc(a1-2)Gal(b1-3)GlcNAc(b1-3)Gal(b1-4)Glc
# Procedure, shortened: as §1
# [5] = target: Fuc(a1-2)Gal(b1-3)[Fuc(a1-4)]GlcNAc
# Procedure, shortened: as §1
# Fuc(a1-2)Gal(b1-4)Glc = target: Fuc(a1-2)Gal(b1-4)Glc
# Procedure, shortened: as §1
# Fuc(a1-2)Gal(b1-4)Glc6S = target: Fuc(a1-2)Gal(b1-4)Glc6S
# Procedure, shortened: as §1
# Fuc(a1-2)Gal(b1-4)GlcNAc = target: Fuc(a1-2)Gal(b1-4)GlcNAc
# Procedure, shortened: as §1
# [6] = target: Fuc(a1-2)Gal(b1-4)GlcNAc(b1-2)Man(a1-3)[Fuc(a1-2)Gal(b1-4)GlcNAc(b1-2)Man(a1-6)]Man(b1-4)GlcNAc(b1-4)GlcNAc
# Procedure, shortened: as §1
# [7] = target: Fuc(a1-2)Gal(b1-4)GlcNAc(b1-2)Man(a1-6)[Gal(b1-4)GlcNAc(b1-2)Man(a1-3)]Man(b1-4)GlcNAc(b1-4)GlcNAc
# Procedure, shortened: as §1
# [8] = target: Fuc(a1-2)Gal(b1-4)GlcNAc(b1-3)Gal(b1-4)GlcNAc
# Procedure, shortened: as §1
# [9] = target: Fuc(a1-2)Gal(b1-4)GlcNAc(b1-3)Gal(b1-4)GlcNAc(b1-3)Gal(b1-4)GlcNAc
# Procedure, shortened: as §1
# [10] = target: Fuc(a1-2)Gal(b1-4)GlcNAc6S
# Procedure, shortened: as §1
# [11] = target: Fuc(a1-2)Gal(b1-4)[Fuc(a1-3)]GlcNAc
# Procedure, shortened: as §1
# [12] = target: Fuc(a1-2)Gal(b1-4)[Fuc(a1-3)]GlcNAc(b1-3)Gal(b1-4)[Fuc(a1-3)]GlcNAc
# Procedure, shortened: as §1
# [13] = target: Fuc(a1-2)Gal(b1-4)[Fuc(a1-3)]GlcNAc(b1-3)Gal(b1-4)[Fuc(a1-3)]GlcNAc(b1-3)Gal(b1-4)[Fuc(a1-3)]GlcNAc
# Procedure, shortened: as §1
# Fuc(a1-2)Gal6S(b1-4)Glc = target: Fuc(a1-2)Gal6S(b1-4)Glc
# Procedure, shortened: as §1
# [14] = target: Fuc(a1-2)Gal6S(b1-4)Glc6S
# Procedure, shortened: as §1
# [15] = target: Fuc(a1-2)Gal6S(b1-4)GlcNAc
# Procedure, shortened: as §1
# Fuc(a1-2)[Gal(a1-3)]Gal = target: Fuc(a1-2)[Gal(a1-3)]Gal
# Procedure, shortened: as §1
# [16] = target: Fuc(a1-2)[Gal(a1-3)]Gal(b1-3)GlcNAc
# Procedure, shortened: as §1
# [17] = target: Fuc(a1-2)[Gal(a1-3)]Gal(b1-4)Glc
# Procedure, shortened: as §1
# [18] = target: Fuc(a1-2)[Gal(a1-3)]Gal(b1-4)GlcNAc
# Procedure, shortened: as §1
# [19] = target: Fuc(a1-2)[Gal(a1-3)]Gal(b1-4)[Fuc(a1-3)]GlcNAc
# Procedure, shortened: as §1
# [20] = target: Fuc(a1-2)[Gal(a1-4)]Gal(b1-4)GlcNAc
# Procedure, shortened: as §1
# [21] = target: Fuc(a1-2)[GalNAc(a1-3)]Gal
# Procedure, shortened: as §1
# [22] = target: Fuc(a1-2)[GalNAc(a1-3)]Gal(b1-3)GlcNAc
# Procedure, shortened: as §1
binder,measurement,setting,value
B1,glycan array binding signal (z-score),Fuc(a1-2)Gal,0.211
same,glycan array binding signal (z-score),Fuc(a1-2)Gal(b1-3)GalNAc,-0.606
same,glycan array binding signal (z-score),[1],-0.031
same,glycan array binding signal (z-score),[2],-0.3
same,glycan array binding signal (z-score),[3],-0.451
same,glycan array binding signal (z-score),Fuc(a1-2)Gal(b1-3)GlcNAc,-0.034
same,glycan array binding signal (z-score),[4],-0.532
same,glycan array binding signal (z-score),[5],-0.167
same,glycan array binding signal (z-score),Fuc(a1-2)Gal(b1-4)Glc,-0.842
same,glycan array binding signal (z-score),Fuc(a1-2)Gal(b1-4)Glc6S,0.185
same,glycan array binding signal (z-score),Fuc(a1-2)Gal(b1-4)GlcNAc,-0.102
same,glycan array binding signal (z-score),[6],-0.383
same,glycan array binding signal (z-score),[7],-0.749
same,glycan array binding signal (z-score),[8],-0.358
same,glycan array binding signal (z-score),[9],-0.152
same,glycan array binding signal (z-score),[10],0.015
same,glycan array binding signal (z-score),[11],-0.436
same,glycan array binding signal (z-score),[12],-0.572
same,glycan array binding signal (z-score),[13],-0.302
same,glycan array binding signal (z-score),Fuc(a1-2)Gal6S(b1-4)Glc,0.044
same,glycan array binding signal (z-score),[14],0.402
same,glycan array binding signal (z-score),[15],0.084
same,glycan array binding signal (z-score),Fuc(a1-2)[Gal(a1-3)]Gal,-0.056
same,glycan array binding signal (z-score),[16],-0.696
same,glycan array binding signal (z-score),[17],0.274
same,glycan array binding signal (z-score),[18],-0.689
same,glycan array binding signal (z-score),[19],0.197
same,glycan array binding signal (z-score),[20],-0.168
same,glycan array binding signal (z-score),[21],-0.228
same,glycan array binding signal (z-score),[22],-0.252
